From PubChem BioAssay AID1347073 (National Center for Advancing Translational Sciences (NCATS), 2019)
Among all 45,000 compounds or so, about 200 (0.44%) were called active. Roughly 7% stayed inconclusive and do not appear here. Calls come from the whole dose curve; as a rule, active = well fitted activation curve with a large enough effect; inconclusive = small, poorly fitted or top-dose-only effect; inactive = no such curve, though single readings can be large or run the other way. This is one part of the list.

Test: qHTS of TDP-43 Inhibitors: NCGC Sytravon Library Screen; note: nearly all actives have a fitted effect of over 55% in size; for growth rescue (activation): 0% is about no effect
Settings: yeast TDP-43 toxicity rescue, BacTiter-Glo growth, 24 h; series mostly up to 46.1 µM; growth rescue (activation): at the top concentration
Outline: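 TDP-43-expressing yeast, pregrown in raffinose, seeded at OD600 0.02 in galactose medium with compound for 24 hr at 30 deg C. Growth read by BacTiter-Glo luminescence, so rescue of toxicity appears as activation.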
Potency is the fitted concentration of half-maximal effect.

Structure (SMILES)	growth rescue (activation)	Potency
O=C(O)CCN=Cc1c(O)c2ccccc2oc1=O	inactive: -2.34%	
COc1cc(-c2cc3nc(NCCN(C)C)ccn3n2)cc(OC)c1OC	inactive: -7.99%	
Oc1oc(-c2ccccc2Br)nc1C=Nc1ccc(Br)cn1	inactive: 8.35%	
COC(=O)C(=NNc1c(C)n(C)n(-c2ccccc2)c1=O)C(=O)OC	inactive: 0.502%	
CCN(CC)S(=O)(=O)c1ccc(C(=O)NCC(=O)NCCCc2ccccc2)cc1	inactive: 21.5%	
CCCn1c(=O)c(C(=O)NCC2CCCO2)c(O)c2ccccc21 (stereo not drawn)	inactive: -4.17%	
O=C(/C=C/Nc1ccc(S(=O)(=O)Nc2cnc3ccccc3n2)cc1)c1ccccc1	inactive: 23.1%	
Cc1cccc(NC(=O)CSc2cc(C(=O)c3nccn3C)c3ccccc3n2)c1	inactive: -4.63%	
CCCc1nc2ccccc2n1CCc1ccccc1	inactive: 11%	
Cc1cccc(C)c1NC(=O)C1CCCN1S(=O)(=O)c1ccccc1 (stereo not drawn)	inactive: 14.8%	
CSCCC(NS(=O)(=O)c1ccc(Cl)cc1)C(=O)OCC(=O)NC1CC1 (stereo not drawn)	inactive: 24.2%	
O=C(O)C/C=C(/NC(=O)OCc1ccccc1)C(=O)OCc1ccccc1	inactive: 5.47%	
COc1cccc(C2c3c(-c4cc(Cl)c(C)cc4O)n[nH]c3C(=O)N2Cc2cccnc2)c1 (stereo not drawn)	inactive: 1.59%	
O=C(CCCn1cc([N+](=O)[O-])cn1)Nc1cccnc1	inactive: 12.8%	
CC(C)(C)NC(=O)C(=O)NN=C1CCCCCCC1	inactive: 5%	
CC(=O)c1cc(-c2ccccc2)n(CCC(=O)NC2CCC(C)CC2)c1C (stereo not drawn)	inactive: -2.05%	
O=c1c2c(n3cnnc3n1-c1ccccc1)-c1ccccc1CC21CCCCC1	inactive: 17.5%	
Cc1cc(OCC(O)CN2CCN(C)CC2)ccc1C(C)C (stereo not drawn)	inactive: 7.08%	
CCOC(=O)c1cccc(NC(=O)CCn2c(=O)oc3ccccc32)c1	inactive: 16%	
COc1ccc(C2=NN(CCC(=O)NCc3ccc4c(c3)OCO4)C(=O)CC2)cc1	inactive: -6.3%	
CCOC(=O)Cc1csc(NC(=O)/C=C/c2ccc(OC)cc2)n1	inactive: 2.86%	
COc1ccc(Cl)cc1C(=O)NNC(=O)CCNS(=O)(=O)c1ccccc1	inactive: -0.0197%	
CCCOC(=O)CCCN1C(=O)/C(=C2\SC(=S)N(CCCC(=O)OCCC)C2=O)SC1=S	inactive: 0.45%	

Structure (SMILES)	growth rescue (activation)	Potency
COc1ccccc1CNc1nc(NCc2cccc(OC)c2OC)c2sccc2n1	inactive: -4.45%	
O=c1cc(CN2CCc3ccccc3C2)nc2sccn12	inactive: -0.831%	
COc1cc(C(=O)OCC(=O)NC2CCCCC2)cc(OC)c1OC	inactive: 2.7%	
O=S(=O)(NCc1ccccc1)c1ccc(Br)c2nsnc12	inactive: 24.2%	
CC1(C(=O)NS(=O)(=O)c2cccc(C#N)c2)CCN1C(=O)Cc1ccccc1 (stereo not drawn)	inactive: 9.24%	
O=C1CC(C(=O)N2CCCc3ccccc32)CN1c1ccc(Cl)cc1 (stereo not drawn)	inactive: 28.9%	
COc1ccc(C(=O)NCC(=O)N2CCN(C(=O)c3ccco3)CC2)cc1OC	inactive: 0.0591%	
CC(=O)NCCc1nc2cc(NC(=O)c3ccc([N+](=O)[O-])cc3)ccc2n1C	inactive: -5.03%	
CCCCNC(=O)C1(C)CCN1C(=O)c1ccc(C(F)(F)F)nc1C (stereo not drawn)	inactive: -1.17%	
CCOC(=O)c1c(NC(=O)CSc2cccc[n+]2[O-])sc(C(=O)Nc2ccccc2)c1C	inactive: 14.5%	
CCCc1[nH]nc2c1C(c1ccoc1)C(C#N)=C(N)O2 (stereo not drawn)	inactive: -0.202%	
CC(C)(C)c1ccc(NC(=O)Cn2cnc3cc([N+](=O)[O-])ccc3c2=O)cc1	inactive: 7.37%	
N#Cc1nc(COc2ccccc2)oc1NCCN1CCOCC1	inactive: 18%	
O=C(Nc1nc(-c2ccccn2)cs1)c1ncc(Cl)c(Cl)c1Cl	inactive: -78.1%	
CCCS(=O)(=O)NC(=O)C1(C)CCN(C(=O)c2cccc3ccccc23)C1 (stereo not drawn)	inactive: -8.97%	
CCOC(=O)C1CN(C(C)(C)C)C(=O)C1=O (stereo not drawn)	inactive: -21.1%	
Cc1cc(NC(=O)c2cc(C)on2)n(-c2ccccc2)n1	inactive: 7.75%	
O=C(NCCNC(=O)c1ccc(Cl)cc1Cl)c1ccccn1	inactive: 1.59%	
Cc1cccnc1C(NC(=O)C1CCN(Cc2ccc(Cl)c(Cl)c2)CC1)c1ccc(Cl)cc1 (stereo not drawn)	inactive: 6.99%	
COc1ccc(-c2[nH]ncc2CN2CCCC(C(=O)c3cccc(OC)c3)C2)cc1 (stereo not drawn)	inactive: 6.87%	
COc1cc(NC(=O)C/C(C)=N/NC(=O)Cc2ccc(Cl)cc2)c(OC)cc1Cl	inactive: 18.9%	
Cc1ccc(F)c(S(=O)(=O)NC(=O)C2(C)CCN2C(=O)c2ccc(C(F)(F)F)nc2C)c1 (stereo not drawn)	inactive: 2.82%	
COC(=O)C1CCN(C(=O)Cn2nnc(-c3ccccc3)n2)CC1	inactive: -2.52%	

Structure (SMILES)	growth rescue (activation)	Potency
CCOC(=O)COc1ccccc1/C=C1/NC(=O)NC1=O	inactive: 18.9%	
COc1ccc(O)c(C2=Nc3ccccc3N=C(c3cccs3)C2)c1	inactive: -3.69%	
COc1ccc(NC(=O)C2Cc3c(-c4ccc(Cl)cc4)ccnc3O2)cc1 (stereo not drawn)		active: 20 µM
CCCc1ccc(C(O)c2ncc(-c3cccc(F)c3)[nH]2)cc1 (stereo not drawn)	inactive: 13.1%	
Cc1ccc2ccc3cccnc3c2n1	inactive: 10.2%	
O=C(Cc1ccccc1[N+](=O)[O-])Nc1nccs1	inactive: 24.9%	
CCOC(=O)C1(Cc2cccc(Cl)c2)CCCN(CCO)C1 (stereo not drawn)	inactive: 11.2%	
Cc1ccn(Cc2n[nH]c(=S)n2Cc2ccccc2)n1	inactive: -4.31%	
CC(=O)c1sc(N/N=C/c2cccc([N+](=O)[O-])c2)nc1C	inactive: 6.3%	
CC(NC(=O)C1CCC(CNc2c(N3CCCCC3)c(=O)c2=O)CC1)c1ccccc1 (stereo not drawn)	inactive: -13.8%	
O=C(CSC(=O)c1ccccc1)Nc1ccccc1F	inactive: 14%	
O=C(COC(=O)[C@@H]1CCCN1C(=O)c1cccs1)Nc1cccc([N+](=O)[O-])c1	inactive: 25.8%	
O=C(N/N=C/c1ccc([N+](=O)[O-])o1)C1CC1	inactive: 26%	
O=C(CNC(=O)c1ccc(Cl)c([N+](=O)[O-])c1)NCC1CCCO1 (stereo not drawn)	inactive: 4.37%	
COc1cccc(OC)c1C(=O)N=c1sc2cc(S(C)(=O)=O)ccc2n1C	inactive: 6.6%	
c1ccc(-c2nc3ccccn3c2NC2CCCC2)nc1	inactive: -20.9%	
CCN(CC(=O)Nc1ccc(C(C)=O)cc1)CC(=O)Nc1ccc2c(c1)OCCO2	inactive: -11.5%	
CCN(Cc1ccncc1)Cc1cn[nH]c1-c1ccc(OC)cc1F	inactive: 6.77%	
Cc1cc(C(=O)COC(=O)C23CC4CC(CC(O)(C4)C2)C3)c(C)n1C	inactive: -2.2%	
COc1ccc(S(=O)(=O)N2CCC(C(=O)NC(C)CCc3ccccc3)CC2)cc1 (stereo not drawn)	inactive: 19.4%	
Cc1ccc(S(=O)(=O)N2CC(O)CC2C(=O)OCC(=O)Nc2ccc([N+](=O)[O-])cc2C(F)(F)F)cc1C (stereo not drawn)	inactive: 24.1%	
CCn1cc(CNC(=O)CC2C(=O)NCCN2CC(c2ccccc2)c2ccccc2)cn1 (stereo not drawn)	inactive: -2.72%	
